Test results published in paper PMC5540273 (PLoS ONE, 2017).
For some of these results: The strong results were mostly taken out for another list; the other results follow. The entries are a selection whose mix differs from that of the whole data set.

Key:
Conditions in all cases: concentration: 1 μM,replicates: in singlicate; n = 1
PIM2 = system: PIM2
PIM3 = system: PIM3
PIP5K1A = system: PIP5K1A
PIP5K1C = system: PIP5K1C
PIP5K2B = system: PIP5K2B
PIP5K2C = system: T1, PIP5K2C
T1 construct: gene PIP4K2C

PKAC-alpha = system: T2, PKAC-alpha
T2 construct: gene PRKACA

PKAC-beta = system: T3, PKAC-beta
T3 construct: gene PRKACB

PKMYT1 = system: PKMYT1
PKN1 = system: PKN1
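Also: KINOMEscan kinase panel screen.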

| SMILES | %Inh (PIM2) [%] | %Inh (PIM3) [%] | %Inh (PIP5K1A) [%] | %Inh (PIP5K1C) [%] | %Inh (PIP5K2B) [%] | %Inh (PIP5K2C) [%] | %Inh (PKAC-alpha) [%] | %Inh (PKAC-beta) [%] | %Inh (PKMYT1) [%] | %Inh (PKN1) [%] |
| --- | --- | --- | --- | --- | --- | --- | --- | --- | --- | --- |
| O=C1NC(=O)c2c1c(-c1ccccc1)cc1[nH]c3ccc(O)cc3c21 | 84 | 91 | 76 | 34 | 0 | 7 | 0 | 20 | 43 | 75 |
| O=C1NC(=O)C(c2ccccc2Cl)=C1Nc1ccccc1 [SB-376715] | 0 | 3 | 3 | 37 | 11 | 9 | 8 | 0 | 7 | 47 |
| Cc1ccc(C)c(Oc2nccc(-c3c(-c4ccc(F)cc4)ncn3C3CCNCC3)n2)c1.O=C(O)C(F)(F)F.O=C(O)C(F)(F)F.O=C(O)C(F)(F)F [SB-284852] | 24 | 0 | 15 | 23 | 0 | 28 | 10 | 33 | 1 | 0 |
| O=C1NC(=O)C(c2ccccc2Cl)=C1Nc1cccc(C(=O)O)c1 [SB-390526] | 0 | 1 | 56 | 59 | 0 | 38 | 0 | 0 | 14 | 0 |
| O=C1NC(=O)C(c2ccccc2)=C1Nc1ccc(Cl)c(C(=O)O)c1 [SB-390532] | 0 | 2 | 51 | 61 | 17 | 68 | 0 | 0 | 0 | 0 |
| Cc1cc(C)cc(Oc2nccc(-c3c(-c4ccc(F)cc4)ncn3C3CCNCC3)n2)c1.O=C(O)C(F)(F)F.O=C(O)C(F)(F)F.O=C(O)C(F)(F)F [SB-284851] | 20 | 0 | 0 | 33 | 0 | 19 | 12 | 34 | 0 | 0 |
| CSc1ccc(NC2=C(c3cccc(Cl)c3)C(=O)NC2=O)cc1 [SB-341528] | 10 | 0 | 100 | 0 | 0 | 0 | 17 | 18 | 0 | 0 |
| CS(=O)(=O)c1ccccc1-c1nc(-c2ccc(F)cc2)c(-c2ccncc2)[nH]1 [SB-213663] | 0 | 0 | 9 | 6 | 0 | 18 | 81 | 77 | 7 | 0 |
| COc1cccc(C2=C(Nc3ccc(SC)cc3)C(=O)NC2=O)c1 [SB-331032] | 0 | 0 | 23 | 4 | 4 | 45 | 0 | 1 | 0 | 0 |
| O=C1NC(=O)C(c2ccccc2)=C1Nc1cc(Cl)c(O)c(Cl)c1 [SB-390530] | 5 | 17 | 0 | 100 | 0 | 0 | 0 | 0 | 0 | 0 |
| COc1ccc(C2=C(Nc3cccc(Cl)c3)C(=O)NC2=O)cc1 [SB-326892] | 0 | 0 | 0 | 5 | 31 | 0 | 0 | 11 | 0 | 8 |
| O=C1NC(=O)C(c2ccc(Cl)cc2)=C1Nc1cccc(C(=O)O)c1 [SB-360737] | 0 | 0 | 0 | 0 | 0 | 6 | 0 | 16 | 0 | 38 |
| O=C1NC(=O)C(c2ccc(Cl)cc2)=C1Nc1ccccc1 [SB-317661] | 0 | 7 | 1 | 0 | 0 | 23 | 0 | 0 | 0 | 0 |
| O=C1NC(=O)C(c2ccc(Cl)cc2)=C1Nc1cccc(O)c1 [SB-333613] | 13 | 19 | 5 | 49 | 0 | 42 | 22 | 0 | 3 | 12 |
| O=C1NC(=O)C(c2ccc(Cl)cc2)=C1Nc1ccc(O)c(Cl)c1 [SB-405367] | 16 | 9 | 8 | 0 | 1 | 0 | 2 | 0 | 0 | 0 |
| O=C(O)c1ccc(-c2nc(-c3ccc(F)cc3)c(-c3ccncc3)[nH]2)cc1 [SB-202620] | 24 | 1 | 0 | 0 | 14 | 0 | 19 | 0 | 6 | 0 |
